Laboratory results from a collection of fitness landscapes (doi:10.1016/j.celrep.2020.107928).
In all, about 81,000 sequences were measured (“one-hybrid fitness for binding NBS DNA”: median about -0.1, highest 2% from about 0.36 on). Some of the results follow.

B1: Caulobacter ParB omega fusion; a variant is named by its letters at X, in order, B8GW30 (parent)
chain: MESVVVGEPGMSEGRRGLGRGLSALLGEVDAAPAQAPGEQLGGSREAPIEILQRNPDQPRRTFREEDLEDLSNSIREKGVLQPILVRPSPDTAGEYQIVAGERAWRAAQRAGLKTVPIMVRELDDLAVLEIGIIENVQRADLNVLEEALSYKVLMEKFERTQENIAQTIGKSXSHVANXMRLLXLPDEVQSYLVSGELTAXHARAIAAAADPVALAKQIIEGGLSVRETEALARKAPNLSAGKSKGGRPPRVKDTDTQALESDLSSVLGLDVSIDHRGSTGTLTITYATLEQLDDLCNRLTRGI

Variants of: B1
Assay: one-hybrid fitness for binding NBS DNA (the Noc-binding site; scaled: cognate 1, non-cognate 0); higher = stronger binding
Conditions: with NBS DNA site
How it was run: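 Selection: bacterial one-hybrid in E. coli USO, HIS3 reporter with the site 19 bp from the promoter, 48 hours at 37°C on M9-minus-histidine plus 0.1 mM IPTG and 5 mM 3-AT. Libraries were Caulobacter ParB with four randomised specificity codons, sequenced on Illumina before and after selection. Fitness is the rescaled log change in variant-to-wild-type read ratio, anchored to the cognate and non-cognate sites.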

DAVS and ENWS cannot be ordered by “one-hybrid fitness for binding NBS DNA” value: ≤ 0.2 for the first, ≤ 0.2 for the second.

LVWS and AESG cannot be ordered by “one-hybrid fitness for binding NBS DNA” value: ≤ 0.2 for the first, ≤ 0.2 for the second.

AGVD and VGAR cannot be ordered by “one-hybrid fitness for binding NBS DNA” value: ≤ 0.2 for the first, ≤ 0.2 for the second.

QSTF and LHAR cannot be ordered by “one-hybrid fitness for binding NBS DNA” value: ≤ 0.2 for the first, ≤ 0.2 for the second.

PVFF and TGST cannot be ordered by “one-hybrid fitness for binding NBS DNA” value: ≤ 0.2 for the first, ≤ 0.2 for the second.

TLPI and YQDS cannot be ordered by “one-hybrid fitness for binding NBS DNA” value: ≤ 0.2 for the first, ≤ 0.2 for the second.

AIRC and LSYV cannot be ordered by “one-hybrid fitness for binding NBS DNA” value: ≤ 0.2 for the first, ≤ 0.2 for the second.

QQCY and ETSG cannot be ordered by “one-hybrid fitness for binding NBS DNA” value: ≤ 0.2 for the first, ≤ 0.2 for the second.

FLSR and VRTW cannot be ordered by “one-hybrid fitness for binding NBS DNA” value: ≤ 0.2 for the first, ≤ 0.2 for the second.

Going from KRVT to RQFF, the “one-hybrid fitness for binding NBS DNA” value falls from 0.547 to ≤ 0.2.

PWTP and NWPS cannot be ordered by “one-hybrid fitness for binding NBS DNA” value: ≤ 0.2 for the first, ≤ 0.2 for the second.

SSCP and AQEM cannot be ordered by “one-hybrid fitness for binding NBS DNA” value: ≤ 0.2 for the first, ≤ 0.2 for the second.

CKTL and HHSE cannot be ordered by “one-hybrid fitness for binding NBS DNA” value: ≤ 0.2 for the first, ≤ 0.2 for the second.

VQLR and ITTK cannot be ordered by “one-hybrid fitness for binding NBS DNA” value: ≤ 0.2 for the first, ≤ 0.2 for the second.

ARFC and CESW cannot be ordered by “one-hybrid fitness for binding NBS DNA” value: ≤ 0.2 for the first, ≤ 0.2 for the second.

IVQA and YKIG cannot be ordered by “one-hybrid fitness for binding NBS DNA” value: ≤ 0.2 for the first, ≤ 0.2 for the second.

QCAD and TNHG cannot be ordered by “one-hybrid fitness for binding NBS DNA” value: ≤ 0.2 for the first, ≤ 0.2 for the second.

PWLL and IPHF cannot be ordered by “one-hybrid fitness for binding NBS DNA” value: ≤ 0.2 for the first, ≤ 0.2 for the second.

First: QVLR
Second: PTVK
The “one-hybrid fitness for binding NBS DNA” value of the first is higher: 0.305 for the first, ≤ 0.2 for the second.

EEPS and AHLK cannot be ordered by “one-hybrid fitness for binding NBS DNA” value: ≤ 0.2 for the first, ≤ 0.2 for the second.

VPKM and VRKC cannot be ordered by “one-hybrid fitness for binding NBS DNA” value: ≤ 0.2 for the first, ≤ 0.2 for the second.

FLRR and QGAL cannot be ordered by “one-hybrid fitness for binding NBS DNA” value: ≤ 0.2 for the first, ≤ 0.2 for the second.

SMGT and QDSI cannot be ordered by “one-hybrid fitness for binding NBS DNA” value: ≤ 0.2 for the first, ≤ 0.2 for the second.

SKSY and IKFC cannot be ordered by “one-hybrid fitness for binding NBS DNA” value: ≤ 0.2 for the first, ≤ 0.2 for the second.

NAGI and EHMY cannot be ordered by “one-hybrid fitness for binding NBS DNA” value: ≤ 0.2 for the first, ≤ 0.2 for the second.

WAWR and PKNV cannot be ordered by “one-hybrid fitness for binding NBS DNA” value: ≤ 0.2 for the first, ≤ 0.2 for the second.

SVAG and DTSC cannot be ordered by “one-hybrid fitness for binding NBS DNA” value: ≤ 0.2 for the first, ≤ 0.2 for the second.

CSAR and HELG cannot be ordered by “one-hybrid fitness for binding NBS DNA” value: ≤ 0.2 for the first, ≤ 0.2 for the second.

NNMR and VQAT cannot be ordered by “one-hybrid fitness for binding NBS DNA” value: ≤ 0.2 for the first, ≤ 0.2 for the second.

SSRE and TNDE cannot be ordered by “one-hybrid fitness for binding NBS DNA” value: ≤ 0.2 for the first, ≤ 0.2 for the second.

MDIK and LALN cannot be ordered by “one-hybrid fitness for binding NBS DNA” value: ≤ 0.2 for the first, ≤ 0.2 for the second.

LQHS and MESW cannot be ordered by “one-hybrid fitness for binding NBS DNA” value: ≤ 0.2 for the first, ≤ 0.2 for the second.

WQRW and TRGS cannot be ordered by “one-hybrid fitness for binding NBS DNA” value: ≤ 0.2 for the first, ≤ 0.2 for the second.

MTRH and MTQT cannot be ordered by “one-hybrid fitness for binding NBS DNA” value: ≤ 0.2 for the first, ≤ 0.2 for the second.

KDDR and LFYR cannot be ordered by “one-hybrid fitness for binding NBS DNA” value: ≤ 0.2 for the first, ≤ 0.2 for the second.

RFQI and MQPG cannot be ordered by “one-hybrid fitness for binding NBS DNA” value: ≤ 0.2 for the first, ≤ 0.2 for the second.

VKWL and LMKQ cannot be ordered by “one-hybrid fitness for binding NBS DNA” value: ≤ 0.2 for the first, ≤ 0.2 for the second.

LGEA and VDYC cannot be ordered by “one-hybrid fitness for binding NBS DNA” value: ≤ 0.2 for the first, ≤ 0.2 for the second.

WSTR and CVHR cannot be ordered by “one-hybrid fitness for binding NBS DNA” value: ≤ 0.2 for the first, ≤ 0.2 for the second.

HTGK and HSTW cannot be ordered by “one-hybrid fitness for binding NBS DNA” value: ≤ 0.2 for the first, ≤ 0.2 for the second.

PCCA and NQQG cannot be ordered by “one-hybrid fitness for binding NBS DNA” value: ≤ 0.2 for the first, ≤ 0.2 for the second.

PIRP and EHDG cannot be ordered by “one-hybrid fitness for binding NBS DNA” value: ≤ 0.2 for the first, ≤ 0.2 for the second.

RWHF and RYTP cannot be ordered by “one-hybrid fitness for binding NBS DNA” value: ≤ 0.2 for the first, ≤ 0.2 for the second.

SMKD and DENK cannot be ordered by “one-hybrid fitness for binding NBS DNA” value: ≤ 0.2 for the first, ≤ 0.2 for the second.

SFLH and CLTC cannot be ordered by “one-hybrid fitness for binding NBS DNA” value: ≤ 0.2 for the first, ≤ 0.2 for the second.

VYIT and CLRY cannot be ordered by “one-hybrid fitness for binding NBS DNA” value: ≤ 0.2 for the first, ≤ 0.2 for the second.

Going from QRAI to GPMR, the “one-hybrid fitness for binding NBS DNA” value falls from 0.301 to ≤ 0.2.

HRKL and SADY cannot be ordered by “one-hybrid fitness for binding NBS DNA” value: ≤ 0.2 for the first, ≤ 0.2 for the second.

PQMC and PIMY cannot be ordered by “one-hybrid fitness for binding NBS DNA” value: ≤ 0.2 for the first, ≤ 0.2 for the second.

LWWF and NNID cannot be ordered by “one-hybrid fitness for binding NBS DNA” value: ≤ 0.2 for the first, ≤ 0.2 for the second.

Going from RISR to HVII, the “one-hybrid fitness for binding NBS DNA” value falls from 0.386 to ≤ 0.2.

IWLR and MLIS cannot be ordered by “one-hybrid fitness for binding NBS DNA” value: ≤ 0.2 for the first, ≤ 0.2 for the second.

Going from STWV to QHRM, the “one-hybrid fitness for binding NBS DNA” value rises from ≤ 0.2 to 0.379.

KGCA and LAVV cannot be ordered by “one-hybrid fitness for binding NBS DNA” value: ≤ 0.2 for the first, ≤ 0.2 for the second.

TLPR and MKCY cannot be ordered by “one-hybrid fitness for binding NBS DNA” value: ≤ 0.2 for the first, ≤ 0.2 for the second.

AHMG and PEKR cannot be ordered by “one-hybrid fitness for binding NBS DNA” value: ≤ 0.2 for the first, ≤ 0.2 for the second.

ISCS and SIFQ cannot be ordered by “one-hybrid fitness for binding NBS DNA” value: ≤ 0.2 for the first, ≤ 0.2 for the second.

VRPI and AEHM cannot be ordered by “one-hybrid fitness for binding NBS DNA” value: ≤ 0.2 for the first, ≤ 0.2 for the second.

QANV and QSQK cannot be ordered by “one-hybrid fitness for binding NBS DNA” value: ≤ 0.2 for the first, ≤ 0.2 for the second.

RGAT and GYQM cannot be ordered by “one-hybrid fitness for binding NBS DNA” value: ≤ 0.2 for the first, ≤ 0.2 for the second.

HCLC and LPNQ cannot be ordered by “one-hybrid fitness for binding NBS DNA” value: ≤ 0.2 for the first, ≤ 0.2 for the second.

CLKS and MVAV cannot be ordered by “one-hybrid fitness for binding NBS DNA” value: ≤ 0.2 for the first, ≤ 0.2 for the second.

ALQM and HACL cannot be ordered by “one-hybrid fitness for binding NBS DNA” value: ≤ 0.2 for the first, ≤ 0.2 for the second.

CGSW and WMAR cannot be ordered by “one-hybrid fitness for binding NBS DNA” value: ≤ 0.2 for the first, ≤ 0.2 for the second.

HSQK and AVCE cannot be ordered by “one-hybrid fitness for binding NBS DNA” value: ≤ 0.2 for the first, ≤ 0.2 for the second.

LCNS and QMQN cannot be ordered by “one-hybrid fitness for binding NBS DNA” value: ≤ 0.2 for the first, ≤ 0.2 for the second.

EVQG and QWTA cannot be ordered by “one-hybrid fitness for binding NBS DNA” value: ≤ 0.2 for the first, ≤ 0.2 for the second.

First: WQST
Second: QRIT
The “one-hybrid fitness for binding NBS DNA” value of the first is lower: ≤ 0.2 for the first, 0.678 for the second.

First: GATG
Second: RFST
The “one-hybrid fitness for binding NBS DNA” value of the first is lower: ≤ 0.2 for the first, 0.217 for the second.

Compared with QFEE, RRFT is higher in “one-hybrid fitness for binding NBS DNA” value: ≤ 0.2 for the first, 0.777 for the second.

PGSN and MCIC cannot be ordered by “one-hybrid fitness for binding NBS DNA” value: ≤ 0.2 for the first, ≤ 0.2 for the second.

RKEF and DHTM cannot be ordered by “one-hybrid fitness for binding NBS DNA” value: ≤ 0.2 for the first, ≤ 0.2 for the second.

SIQG and RDGC cannot be ordered by “one-hybrid fitness for binding NBS DNA” value: ≤ 0.2 for the first, ≤ 0.2 for the second.

KGAH and SLEM cannot be ordered by “one-hybrid fitness for binding NBS DNA” value: ≤ 0.2 for the first, ≤ 0.2 for the second.

MCYT and FPVT cannot be ordered by “one-hybrid fitness for binding NBS DNA” value: ≤ 0.2 for the first, ≤ 0.2 for the second.

WVHC and DHNA cannot be ordered by “one-hybrid fitness for binding NBS DNA” value: ≤ 0.2 for the first, ≤ 0.2 for the second.

FMQG and WSNT cannot be ordered by “one-hybrid fitness for binding NBS DNA” value: ≤ 0.2 for the first, ≤ 0.2 for the second.

IVKC and WFHS cannot be ordered by “one-hybrid fitness for binding NBS DNA” value: ≤ 0.2 for the first, ≤ 0.2 for the second.

HPVG and LGHA cannot be ordered by “one-hybrid fitness for binding NBS DNA” value: ≤ 0.2 for the first, ≤ 0.2 for the second.

LAKW and KMWD cannot be ordered by “one-hybrid fitness for binding NBS DNA” value: ≤ 0.2 for the first, ≤ 0.2 for the second.

PSQA and GCHG cannot be ordered by “one-hybrid fitness for binding NBS DNA” value: ≤ 0.2 for the first, ≤ 0.2 for the second.

MDNT and ADKD cannot be ordered by “one-hybrid fitness for binding NBS DNA” value: ≤ 0.2 for the first, ≤ 0.2 for the second.

QNVG and QYGL cannot be ordered by “one-hybrid fitness for binding NBS DNA” value: ≤ 0.2 for the first, ≤ 0.2 for the second.

YARH and PHHA cannot be ordered by “one-hybrid fitness for binding NBS DNA” value: ≤ 0.2 for the first, ≤ 0.2 for the second.

MNRQ and KTYH cannot be ordered by “one-hybrid fitness for binding NBS DNA” value: ≤ 0.2 for the first, ≤ 0.2 for the second.

THNW and LSNM cannot be ordered by “one-hybrid fitness for binding NBS DNA” value: ≤ 0.2 for the first, ≤ 0.2 for the second.

Compared with DTTH, QQLT is higher in “one-hybrid fitness for binding NBS DNA” value: ≤ 0.2 for the first, 0.45 for the second.

YHTR and LGAC cannot be ordered by “one-hybrid fitness for binding NBS DNA” value: ≤ 0.2 for the first, ≤ 0.2 for the second.

PIVC and LILG cannot be ordered by “one-hybrid fitness for binding NBS DNA” value: ≤ 0.2 for the first, ≤ 0.2 for the second.

LGKS and HAGG cannot be ordered by “one-hybrid fitness for binding NBS DNA” value: ≤ 0.2 for the first, ≤ 0.2 for the second.

GMQG and SMMM cannot be ordered by “one-hybrid fitness for binding NBS DNA” value: ≤ 0.2 for the first, ≤ 0.2 for the second.

ESSI and VLPV cannot be ordered by “one-hybrid fitness for binding NBS DNA” value: ≤ 0.2 for the first, ≤ 0.2 for the second.

CGVE and DPLI cannot be ordered by “one-hybrid fitness for binding NBS DNA” value: ≤ 0.2 for the first, ≤ 0.2 for the second.

RTNK and PCMG cannot be ordered by “one-hybrid fitness for binding NBS DNA” value: ≤ 0.2 for the first, ≤ 0.2 for the second.

TRPM and GVQA cannot be ordered by “one-hybrid fitness for binding NBS DNA” value: ≤ 0.2 for the first, ≤ 0.2 for the second.

YWQS and ALAG cannot be ordered by “one-hybrid fitness for binding NBS DNA” value: ≤ 0.2 for the first, ≤ 0.2 for the second.

First: QVKH
Second: RRPW
The “one-hybrid fitness for binding NBS DNA” value of the first is higher: 0.38 for the first, ≤ 0.2 for the second.

With RWIA the “one-hybrid fitness for binding NBS DNA” value was ≤ 0.2.
